The list shows a part of the results.

In the experiment the test system is PfHDP1 homeodomain (GST-tagged). Briefly: gcPBM binding intensity (ln(normalized median fluorescence intensity)); higher = stronger DNA binding. The method, boiled down:
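After 1 h on an Agilent 4 × 180k array of primer-extended double-stranded 36-bp intergenic genomic probes and negative controls, bound GST-tagged P. falciparum DNA-binding domains were detected with Alexa488 anti-GST antibody and scanned at 488 nm. The domains had been expressed in E. coli, and binding took place in 1× PBS with 1% milk, 0.2 mg/ml BSA, 0.5% salmon testes DNA and 0.03% Triton X-100. Binding intensity is the highest Masliner-normalised natural-log median intensity across replicate spots of either probe orientation.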
Turning to “AAAGAGAACAGAAGTACACACATGTTCTTTTAGTAA [CACACA_site5557]”, the “gcPBM binding intensity (ln)” value came out at 6.28.
In the case of “AAAAAAAACAAACACACACACAAATATTTATATATT [CACACA_site436]” it was 6.76; in that of “TTTTTTTTTCTTTGGTGTACAATGTAATAGAAAATA [XGTACX_site227]”, 6.42; in that of “TAAAAAGAAATGTAAAGTACAAATTTGAATAACATG [XGTACX_site7981]”, 6.58.
In the case of “TAAAAAATAAAAATTGCACACTAAAAAATTACCCAC [CACACA_site5823]” it was 9.35; in that of “TTGATTTTTATTTTTAAAATAAATAAATTTCAAATG [TGCATGCA_negctrl_site199]”, 5.95; in that of “CTAGTAAAAAATGCAAGTACATACATTATAAGTATA [XGTACX_site3908]”, 6.55.
In the case of “ATATTGGAGCACAACACACACAAGTATAAATATGGA [CACACA_site6834]” it was 8.3; in that of “AAAAAACACGCACATACACACAAAAATGTTATAAAT [CACACA_site6188]”, 7.49; in that of “ATCTCATAAAACCGCACACACATAAAATTTGCATTA [CACACA_site3891]”, 8.02.
With “TTATATTTTTTAATTACACACAATTTTTATAAATAT [CACACA_site4148]”, the “gcPBM binding intensity (ln)” value was found to be 6.66.
In the case of “TCTTGTAAATATATGTGTATATTATATTTTATTATA [TGCATGCA_negctrl_site117]” it was 6.4.
In the case of “TGTTAAAATAAAATCTATTACATTTTTATGGTTATA [XGTACX_negctrl_site525]” it was 5.95.
On to “TGCAAGGAAAAACACACACACACATAAATGTATATA [CACACA_site751]”, for which the “gcPBM binding intensity (ln)” value stood at 6.74.
In the case of “CTTAATATTCTTTAAAGTACACAAAATAAGAATATA [XGTACX_site5489]” it was 6.55.
As to “ATTTCATATACAAATTGTACATACAATTTTATGTTT [XGTACX_site3240]”, the “gcPBM binding intensity (ln)” value stood at 6.46.
Consider “TTAAAAATAATATTATGTACTAAGAATAAATATATA [XGTACX_site3100]”, for which the “gcPBM binding intensity (ln)” value amounted to 6.47.
As to “AATATATATATATTCACACATAAAAAAGTAAAAAAA [CACACA_site5040]”, the “gcPBM binding intensity (ln)” value was determined as 6.79.
Next, “CACACGCACGAACACACACACACACGCATATAAATA [CACACA_site6302]”: 7.67; “TATCTCATAGTATACACACACACACCCACCCATATA [CACACA_site1739]”: 7.52.
As to “TAATTATATGTATACACACACATACATTTACATAAC [CACACA_site3238]”, the “gcPBM binding intensity (ln)” value was 7.03.
Next, “TTAATTTCTATATACGCATGTATGAATAAGATATTG [TGCATGCA_site202]”: 6.18; “ATTTTTTTATAAGAAAATTTCTAACGTTAAAAAAAA [CACACA_negctrl_site1367]”: 6.33.
With “CAAACAAACAAATATACACACTTTTGTATAAAGTAA [CACACA_site5860]”, the “gcPBM binding intensity (ln)” value was 6.35.
On to “TATAATTATATATATAGTACAGATTTGTTATGTTTA [XGTACX_site7724]”, for which the “gcPBM binding intensity (ln)” value is 6.02.
“AGCTCTTGTCATTTTGCACACACACCCGTATAGGTT [CACACA_site3056]”: the “gcPBM binding intensity (ln)” value stood at 10.3.
Take “TCTTTTTTTTTTAAACGTACATTGCATTATCACGTA [XGTACX_site6873]”: the “gcPBM binding intensity (ln)” value stood at 6.87.
As for “ATCCATTATTTTTGTTGTACGGGTAACTTTAAAAAG [XGTACX_site2226]”, the “gcPBM binding intensity (ln)” value was found to be 6.8.
With “AAAAGGGAAATAAAATAAAAAAAGAAACATATATAG [CACACA_negctrl_site455]”, the “gcPBM binding intensity (ln)” value is 6.69.
Next, “GATTCTTCACCGTACTCACACATATATATATATATA [CACACA_site5665]”: 9.36.
Next, TATATATATATAATAGTGCATAAATAAATATATAAA: 9; “TATCATTTCATATCAAGTACAAACATTTTACATATA [XGTACX_site5307]”: 6.45.
“TTTTAATTAAGACACACACACACATATAAATATGTA [CACACA_site7144]”: the “gcPBM binding intensity (ln)” value worked out at 6.69.
Take “ATAATAATATATATTGTACACACAAAATGGGAAAAA [CACACA_site8568]”: the “gcPBM binding intensity (ln)” value was 7.2.
Next, “TGAAAAAGGAAAAAAAAAAAAAAAAAAAAAACGAAA [GTGCAC_negctrl_site555]”: 5.92; “TATTTATTATTAAGATGTACATAAAACACTGAATAA [XGTACX_site4246]”: 6.28; “GACCATATGAATAATGCACACGTTTTAAAATATTAA [CACACA_site5312]”: 10.2.
Turning to “ATTAAGACACATTGCACACGTGCACCCATAGAAAAA [CACACA_site408]”, the “gcPBM binding intensity (ln)” value was found to be 10.5.
In the case of “AACTATAAATATAAATGTACACATATGTAATATATA [XGTACX_site6085]” it was 6.57; in that of “CTTTTAAATTATTTTTGTACATAATTATATATATAT [XGTACX_site4128]”, 8.27; in that of “TACTGTTTAAAATATAAACACACATTGTTTGCTTTA [CACACA_site8358]”, 6.31.
Next, “AAAAGGAAAATTTTCTTAGTAACTGCATTAAGAGAT [GTGCAC_negctrl_site675]”: 6.67; “TAAAAGTTATAAGAGTGTACGTATATTTATATATCA [XGTACX_site2972]”: 6.25.
As for “TGAAAAATTACAAAAATAATAAAATGAAATAATAAA [GTGCAC_negctrl_site53]”, the “gcPBM binding intensity (ln)” value came to 6.51.
In the case of “TTATTATATTCTCCTTCACACACAAAAATATTTCAT [CACACA_site8738]” it was 6.69; in that of “TTTTAATAACCAATCCGTACATATAATCTTTATATT [XGTACX_site536]”, 6.21; in that of “TGGAAAAATAGGCACACACACATATATACATATATA [CACACA_site1297]”, 6.88.
As to “AGGACTAATATTTGAACACACATATAACATATACAT [CACACA_site7803]”, the “gcPBM binding intensity (ln)” value was found to be 6.56.
Next, “TAAAAAACTTCGTGTTCACACATGTACTATATTATT [CACACA_site4796]”: 6.3.
Take “TTTTTTTTTTTTTGTTGTACATTAAATATATTATTA [XGTACX_site7254]”: the “gcPBM binding intensity (ln)” value was determined as 6.43.
Turning to “ACCCATAAGATAATTACACACAATACATCCCTATAT [CACACA_site5262]”, the “gcPBM binding intensity (ln)” value was determined as 6.79.
With “AAGTATAACCTTTATAATAATGACATGACCGATTTT [CACACA_negctrl_site395]”, the “gcPBM binding intensity (ln)” value came out at 6.04.
On to “AAGCATATTATAAACACACACTGTATAAAGATATAT [CACACA_site6277]”, for which the “gcPBM binding intensity (ln)” value was determined as 6.75.
Turning to “ATATAACGAATAATTACACACTATAAAAAAAGATCT [CACACA_site2862]”, the “gcPBM binding intensity (ln)” value was 6.63.
Next, “TATAACCGAATGTGTACACAAAATAATGTTATATAT [CACACA_site5627]”: 7.77; “ATAATACGAATTTGTAGTACATTTATAATAACATGA [XGTACX_site2614]”: 6.26.
Take “TTGATTATAATTAGTACACACAAAATACATGCGGGG [CACACA_site2277]”: the “gcPBM binding intensity (ln)” value amounted to 7.34.
In the case of “AAATATATAATACATATGTAATATGCATATATATAT [GTGCAC_negctrl_site450]” it was 8.8; in that of “TGAATGTAAGAAAATACACACTAGTATAGTAACACC [CACACA_site5131]”, 7.02; in that of “TTTTTATTACTTCTCTGTACTCAGGAAAATAAATAT [XGTACX_site2092]”, 6.13.
Turning to “CCTCTTTATTTTAATTGTACATTTTTGTAGGTTTTT [XGTACX_site7130]”, the “gcPBM binding intensity (ln)” value was determined as 6.82.
Next, “TCCTTTTTTTTGTAATGTACTTAGTTTGGTTATATG [XGTACX_site8208]”: 6.88; “ATGTATATATATATATGTACTAATTAGTAATTTACG [XGTACX_site6276]”: 6.96; “AAAACAAACCCATTTACACACATAAATAAATCAATT [CACACA_site6126]”: 6.49.
Next, “TAAAATAAAACAAACACACACACACCCCCACAAAAA [CACACA_site3850]”: 8.56.
Consider “TATTTACATGTAAAAGGTACACACATTATATATACA [XGTACX_site2157]”, for which the “gcPBM binding intensity (ln)” value stood at 6.82.
For the sequence “ATACACTTTTATATATCAATACATTATGTATTAAGT [CACACA_negctrl_site421]”, the “gcPBM binding intensity (ln)” value is 6.84.
Turning to “TTTATTATTTTTTGTAGTACTTTATATAAAAGTTCT [XGTACX_site4494]”, the “gcPBM binding intensity (ln)” value is 6.86.
Next, “AAAAAGAAGATATATACACACCAAAAAAAAAAAAAA [CACACA_site7471]”: 6.24; “TAAGGAAAAAGAAAAAGTACATTATATAATAAATAG [XGTACX_site3282]”: 6.72.
In the case of “AAAAAAAATAAAATGAATAAATAAGAATTACATATT [CACACA_negctrl_site863]” it was 6.16; in that of “CAAATATATGTTTTCACACACAAAAGAAATGAAACC [CACACA_site2162]”, 6.44.
“AATATATATATACATACATGCATACATATATATATA [TGCATGCA_site784]”: the “gcPBM binding intensity (ln)” value worked out at 8.99.
On to “GGATAGATCATTTACACACACAAAAAAAAAAAAAAA [CACACA_site2139]”, for which the “gcPBM binding intensity (ln)” value is 6.41.
Turning to “ATAATATATTATTATAGTACTTTATTTTATTTTATG [XGTACX_site2387]”, the “gcPBM binding intensity (ln)” value amounted to 6.65.
In the case of “AATATATTTATATAGTGTACATTTTTTATATATGTA [XGTACX_site8142]” it was 6.48; in that of “TATTAATTTTTATTATGTACATAAATAATTTATATT [XGTACX_site5456]”, 6.03.
Next, “TTGTATAAATATGTATGTATATAATATATGTAAAGA [TGCATGCA_negctrl_site93]”: 6.73; “CACATACACATACACATACACACGCATAGAAACATA [CACACA_site2136]”: 8.06; “AAATCGTGTACATTGACACACATAATTTTTTTTATA [CACACA_site2463]”: 6.28.
On to “ATATGATGTAAAAGCACACATATATATATATATATA [CACACA_site4018]”, for which the “gcPBM binding intensity (ln)” value was found to be 9.49.
Next, “TACTATAAAATGGAATGTACACATAAATATATCTAA [XGTACX_site6137]”: 6.51.
In the case of “GTTTATAACTATGTGTGTACACATTAATCGTTTTTC [XGTACX_site4364]” it was 7.18.
“TTCAGCATAAACACTTGTACATATATACTAAAAATT [XGTACX_site7272]”: the “gcPBM binding intensity (ln)” value came to 6.31.
In the case of “AAAAAAAAAAAACACACACACACACCGAAATATATA [CACACA_site4261]” it was 6.74; in that of “AATTTTTTTTTTTTTTTTTCTTTTGTAATAAACCAT [XGTACX_negctrl_site334]”, 6.1; in that of “ATTATATTTTTAAGTACACACATATAAATAAATATA [CACACA_site7682]”, 6.45.
In the case of “TATTAATTATTTTACTGTACTAATAATACTTTTATT [XGTACX_site2179]” it was 6.48.

Source of the values: the supplement of paper PMC11417369.
